# Measured values: publication PMC4336329 (PLoS ONE, 2015)
# Out of some 310,000 compounds screened, about 2,200 (0.71%) showed an effect of 50% or more. The effect is printed as a negative number. Some of the results follow.
# Target: human ether-à-go-go-related gene (hERG) potassium channel (human, UniProt Q12809)
# Test: primary screen, population patch clamp on CHO cells stably expressing hERG
# Sequence of human ether-à-go-go-related gene (hERG) potassium channel (Q12809 whole entry, looked up): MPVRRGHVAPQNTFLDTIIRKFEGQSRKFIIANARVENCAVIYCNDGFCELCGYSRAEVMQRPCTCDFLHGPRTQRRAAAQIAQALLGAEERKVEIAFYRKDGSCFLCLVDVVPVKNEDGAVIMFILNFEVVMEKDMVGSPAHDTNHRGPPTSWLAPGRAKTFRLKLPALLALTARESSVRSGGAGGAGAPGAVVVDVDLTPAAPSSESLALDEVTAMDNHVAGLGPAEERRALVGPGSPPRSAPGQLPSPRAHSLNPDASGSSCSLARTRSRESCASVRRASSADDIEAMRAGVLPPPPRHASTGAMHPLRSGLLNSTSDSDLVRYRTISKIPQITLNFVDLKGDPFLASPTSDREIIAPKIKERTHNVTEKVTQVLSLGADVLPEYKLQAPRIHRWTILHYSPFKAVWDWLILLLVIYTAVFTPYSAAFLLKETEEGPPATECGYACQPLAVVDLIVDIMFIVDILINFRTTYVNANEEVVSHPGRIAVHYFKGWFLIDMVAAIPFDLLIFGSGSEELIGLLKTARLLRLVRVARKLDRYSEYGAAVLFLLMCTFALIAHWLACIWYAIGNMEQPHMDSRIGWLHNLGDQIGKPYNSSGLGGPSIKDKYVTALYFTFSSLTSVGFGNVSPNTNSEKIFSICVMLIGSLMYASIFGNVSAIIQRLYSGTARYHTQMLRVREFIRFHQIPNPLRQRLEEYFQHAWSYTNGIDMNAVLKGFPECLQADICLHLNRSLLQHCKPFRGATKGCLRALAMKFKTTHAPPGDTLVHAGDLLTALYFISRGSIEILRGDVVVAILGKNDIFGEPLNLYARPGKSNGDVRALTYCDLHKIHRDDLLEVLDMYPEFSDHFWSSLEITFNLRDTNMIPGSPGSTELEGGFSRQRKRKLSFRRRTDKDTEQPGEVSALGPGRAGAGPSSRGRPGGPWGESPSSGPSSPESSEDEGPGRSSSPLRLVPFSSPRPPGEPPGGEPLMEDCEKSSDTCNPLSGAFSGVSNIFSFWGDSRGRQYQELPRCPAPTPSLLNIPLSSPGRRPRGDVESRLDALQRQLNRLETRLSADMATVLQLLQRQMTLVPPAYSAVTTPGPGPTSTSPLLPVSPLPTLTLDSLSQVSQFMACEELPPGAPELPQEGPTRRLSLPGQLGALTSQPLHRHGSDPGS
row,SMILES,"hERG current change (%, negative = inhibition) at 1uM [%]"
1,Cc1cc(N2C(=O)CC(N3CCC(n4c(=O)[nH]c5ccccc54)CC3)C2=O)no1 (centres unmarked),3.9
2,COc1ccc(C(=O)NCCn2ccc3ccccc32)cc1OC,9.32
3,Cc1ccnc(NS(=O)(=O)c2ccc3c(c2)CCO3)c1,14.4
4,CN1CCN(c2ccccc2NC(=O)c2ccc(N3CCCC3)c([N+](=O)[O-])c2)CC1,6.78
5,COc1ccc(/C=C/CN2CCCC(CO)(Cc3cccc(Cl)c3)C2)cc1 (centres unmarked),3.25
6,Cc1cc(NC(=O)CCC(=O)N(CCC(C)C)CC(=O)NCC2CCCO2)no1 (centres unmarked),11.3
7,Cc1ccc(CN(C(=O)c2ccccc2[N+](=O)[O-])C2CCS(=O)(=O)C2)o1 (centres unmarked),8.92
8,COc1cc(-n2nc(C)c3c2OC(N)=C(C#N)C3c2ccccc2)c(Cl)c(Br)c1O (centres unmarked),1.08
9,O=C(Cc1ccc(Br)cc1)NCCc1ccccc1,19.3
10,CN(C)P(=NC(=S)c1cccn1C)(N(C)C)N(C)C,14.6
11,O=C(O)CC(NC(=O)C1CCCCC1)c1cc([N+](=O)[O-])ccc1Cl (centres unmarked),7.05
12,Cc1ccc(NC(=O)CSc2ncccn2)cc1S(=O)(=O)N1CCCCC1,-5.01
13,CCOC(=O)CC1ON(C)C(=O)N1c1ccc([N+](=O)[O-])cc1 (centres unmarked),1.71
14,COc1ccc(CNC(=O)C2CCCN2S(=O)(=O)c2ccc(F)cc2)cc1 (centres unmarked),6.31
15,CC(c1ccccc1)n1c(-c2ccccc2F)n[nH]c1=S (centres unmarked),5.23
16,COc1ccc(/C=N/NC(=S)SC)cc1OC,6.55
17,COC(=O)Cn1c(=O)c2c(n(Cc3ccccc3)c1=O)N/C(=C/c1ccc(Br)cc1)C2=O,7.65
18,COCCn1c(C(C)C)nc2oc3ccccc3c(=O)c2c1=O,-0.841
19,Cc1ccc(S(=O)(=O)Nc2ccnc(-c3cccnc3)n2)cc1,9.13
20,COc1ccc(-c2nc(SCC(=O)N3CCCC3)n[nH]2)cc1,12.5
21,O=S(=O)(NC(=S)Nc1ccccc1)c1ccc(F)cc1,16
22,CCOc1ccc(C2CC(c3cccc(OC)c3)n3nc(N)nc3N2)cc1 (centres unmarked),9.2

row,SMILES,"hERG current change (%, negative = inhibition) at 1uM [%]"
1,O=C(Nc1ccc(Cc2ccncc2)cc1)c1ccc(Br)o1,12.9
2,CN(C)/C=C(\C(=O)c1ccc(F)cc1F)c1nnnn1-c1ccccc1,15
3,CCCCn1c(-c2cccs2)nc2oc3ccccc3c(=O)c2c1=O,8.04
4,CCn1cc(C2=NC(CCSC)CO2)c2ccccc21 (centres unmarked),12
5,CCOCC(=O)Nc1nc(C)cc(C)n1,18.8
6,O=C(Cn1nnc(-c2cccc(C(F)(F)F)c2)n1)NNS(=O)(=O)c1cccc(C(F)(F)F)c1,13.9
7,CC(CCc1ccc(O)cc1)NCc1ccc(Cl)cc1Cl (centres unmarked),-10.9
8,COc1ccc(/C=N/NC(=O)CC2N=C(Cc3ccccc3)NNC2=O)cc1OC (centres unmarked),8.59
9,COc1ccc(C(=O)Nc2cccc(-c3nnc(-c4ccco4)o3)c2)cc1,2.28
10,CCOc1ccc(C(=O)C(C)OC(=O)Cn2cnc3c2c(=O)n(C)c(=O)n3C)cc1 (centres unmarked),3.29
11,Cc1ccc(NC(=S)/N=C(\N)Nc2nc(C)c3cc(C)ccc3n2)c(C)c1,3.57
12,CCc1nnc(NC(=O)c2ccc(-c3ccc(C(C)=O)cc3)o2)s1,6.04
13,CCCCOC(=O)c1ccc(NC(=S)NC(=O)c2ccco2)cc1,17.5
14,CC(C)C[C@H](N)c1cn([C@@H](Cc2ccc(O)cc2)C(=O)N2CCNCC2)nn1.Cl,10.7
15,CC(NS(C)(=O)=O)C(c1cccs1)N1CCN(Cc2ccccc2)CC1 (centres unmarked),6.34
16,CCN(CC)c1ccc(CN2CCCCCC2)cc1,0.566
17,O=C(NCCCn1ccnc1)c1cc(Br)c(Br)s1,4.15
18,CCOC(=O)c1cc(=O)n2nc(-c3ccccc3F)nc2s1,14
19,Cc1ccc(-c2nc3ccccc3c(=O)n2-c2ccncc2)cc1,6.85
20,CCCCNC(=O)N(O)C1N(/N=C/c2ccccc2OC)C(=S)SC1(C)C (centres unmarked),4.28
21,Cc1nnc(SCC(=O)Nc2ccc(F)cc2)n(N)c1=O,-4.05
22,COC(=O)c1cccc(NC(=S)N2CCN(c3ccccc3F)CC2)c1,11.5
